From a collection of fitness landscapes (doi:10.1038/s41467-024-54723-y) come the findings set out here.

Over roughly 18,000 sequences, “TetR repression strength (sort-seq, GFP reporter)” has its median near 0.23; the highest 2% begin near 0.68. This is one part of the list.

UniProt P04483, sequence (P04483 whole entry): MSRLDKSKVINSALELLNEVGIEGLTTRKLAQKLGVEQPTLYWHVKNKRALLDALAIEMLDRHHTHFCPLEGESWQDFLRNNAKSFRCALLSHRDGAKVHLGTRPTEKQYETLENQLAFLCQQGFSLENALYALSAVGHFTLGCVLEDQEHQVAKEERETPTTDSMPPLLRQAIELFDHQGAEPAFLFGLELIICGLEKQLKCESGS

For this experiment, the target named is TetR (class B, Tn10) (UniProt P04483). The experiment is described as follows: TetR repression strength (sort-seq, GFP reporter) (relative to tetO2 = 1); higher = stronger repression. To be noted: E. coli. The essentials:
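E. coli SIG10-MAX carried a low-copy plasmid library with eight randomized operator positions between a constitutive promoter and sfGFP, with TetR constitutively expressed. Cells grew 5 h at 37 °C in LB with 50 µg/mL chloramphenicol, then 10^6 cells were FACS-sorted into 13 fluorescence bins, each Illumina-sequenced. Repression strength is the top bin index plus one minus the read-weighted mean bin, divided by the wild-type operator value. Three independent transformations; variants with ≥30 reads in all replicates and CV ≤0.5 were averaged.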
For TCCCCTAGAGTATTAGAGA, the TetR repression strength was 0.207. As for TCCCTAATAGTTGGGGAGA, the TetR repression strength was 0.246. TCCCTATAAGTAGTTGAGA displayed a TetR repression strength of 0.567. TCCCTGGGAGTGTGTGAGA yielded a TetR repression strength of 0.182. The figure for TCCCGTACAGTGCATGAGA is 0.179; for TCCCGTGAAGTGCCGGAGA it is 0.137; for TCCCGGCCAGTCCCGGAGA it is 0.17. Consider TCCCACTGAGTTACAGAGA, for which the TetR repression strength amounted to 0.208. In turn, TCCCTGCCAGTTTCTGAGA displayed a TetR repression strength of 0.415. The figure for TCCCTTCAAGTACACGAGA is 0.152. Regarding TCCCCCGGAGTGACTGAGA, the TetR repression strength stood at 0.262. TCCCGAGAAGTCCGAGAGA: the TetR repression strength was 0.474. Take TCCCTACCAGTGGAAGAGA: the TetR repression strength worked out at 1.24. As to TCCCATCTAGTAGGTGAGA, the TetR repression strength came to 0.195. In the case of TCCCAAATAGTGGGTGAGA, the TetR repression strength turned out to be 0.183.

For the sequence TCCCAATTAGTTAAGGAGA, the TetR repression strength stood at 0.518. In turn, TCCCGGTCAGTCTGAGAGA returned a TetR repression strength of 0.207. TCCCTGGAAGTTAAAGAGA yielded a TetR repression strength of 0.248.

In turn, TCCCCCAGAGTTGGAGAGA gave a TetR repression strength of 0.318. TCCCTTGCAGTGGGGGAGA showed a TetR repression strength of 0.0874.

TCCCGGAGAGTGGGTGAGA registered a TetR repression strength of 0.294.

With TCCCGTAGAGTTTCGGAGA, the TetR repression strength was 0.121. As for TCCCTTAAAGTGCGGGAGA, the TetR repression strength was found to be 0.265.

The sequence TCCCCTTCAGTGTCTGAGA came in with a TetR repression strength of 0.327.

TCCCCGCCAGTATTTGAGA yielded a TetR repression strength of 0.329. TCCCGAAAAGTAGGAGAGA registered a TetR repression strength of 0.311. TCCCAGTCAGTTTGTGAGA: the TetR repression strength turned out to be 0.204. As to TCCCCGTCAGTCGCTGAGA, the TetR repression strength amounted to 0.432. The figure for TCCCAAATAGTGCTTGAGA is 0; for TCCCTCAAAGTATTTGAGA it is 0.272; for TCCCAATGAGTGACAGAGA it is 0.514. On to TCCCATATAGTAGTGGAGA, for which the TetR repression strength stood at 0.117. Regarding TCCCGTGCAGTGAACGAGA, the TetR repression strength was found to be 0.31. The figure for TCCCGTCAAGTGCTAGAGA is 0.266; for TCCCACTTAGTAAGTGAGA it is 0.141; for TCCCGAAGAGTTGCTGAGA it is 0.486. TCCCCCGGAGTCCGAGAGA registered a TetR repression strength of 0.413.

The sequence TCCCATGCAGTGGAAGAGA yielded a TetR repression strength of 0.281. As to TCCCCGCAAGTGCGTGAGA, the TetR repression strength was 0.343. TCCCTAGTAGTCATCGAGA yielded a TetR repression strength of 0.256. On to TCCCGGACAGTTGTTGAGA, for which the TetR repression strength was found to be 0.265. TCCCAAATAGTCGTGGAGA showed a TetR repression strength of 0.415. In turn, TCCCCTCAAGTAATTGAGA gave a TetR repression strength of 0.155. TCCCACATAGTCTTTGAGA: the TetR repression strength came out at 0.244. The figure for TCCCCCTGAGTCTCGGAGA is 0.122; for TCCCTCTAAGTCATGGAGA it is 0.26; for TCCCAAGGAGTCTACGAGA it is 0.225. TCCCTCAAAGTGGAGGAGA registered a TetR repression strength of 0.33. In the case of TCCCGGTAAGTGGTCGAGA, the TetR repression strength was found to be 0.0942.

TCCCCGATAGTTAGGGAGA registered a TetR repression strength of 0.269. As for TCCCCAGAAGTGGAAGAGA, the TetR repression strength is 0.281. For TCCCACCCAGTGATTGAGA, the TetR repression strength turned out to be 0.357. The figure for TCCCACTAAGTGATAGAGA is 0.427; for TCCCGACAAGTTGGAGAGA it is 0.0165. Next, TCCCCTGAAGTCACGGAGA: 0.226. The figure for TCCCACGAAGTTGAAGAGA is 0.0582; for TCCCCATGAGTTGGGGAGA it is 0.0962. On to TCCCTGAGAGTTCGCGAGA, for which the TetR repression strength came out at 0.0305.

TCCCGGGCAGTTAGGGAGA showed a TetR repression strength of 0.442. TCCCCAGAAGTGTACGAGA returned a TetR repression strength of 0.174. For TCCCCCGGAGTCCAGGAGA, the TetR repression strength came out at 0.104. Sequence TCCCGCATAGTTATAGAGA showed a TetR repression strength of 0.31.

In turn, TCCCCCTTAGTCGATGAGA returned a TetR repression strength of 0.318.

TCCCGTCGAGTCCCGGAGA showed a TetR repression strength of 0.402.

Turning to TCCCGACTAGTGGGGGAGA, the TetR repression strength was determined as 0.264.

Consider TCCCGTAAAGTACGTGAGA, for which the TetR repression strength is 0.116. For TCCCTAATAGTCAGTGAGA, the TetR repression strength was determined as 0.206. Turning to TCCCTGGGAGTGCAGGAGA, the TetR repression strength was found to be 0.171.

TCCCAGTCAGTGGATGAGA yielded a TetR repression strength of 0.267. Sequence TCCCAACAAGTATGTGAGA showed a TetR repression strength of 0.162. With TCCCGGGCAGTGCCTGAGA, the TetR repression strength is 0.283. TCCCCGCTAGTGGATGAGA yielded a TetR repression strength of 0.286. Turning to TCCCGACTAGTCAACGAGA, the TetR repression strength worked out at 0.317. TCCCTAAGAGTGACGGAGA returned a TetR repression strength of 0.252. Turning to TCCCAAAAAGTGGGGGAGA, the TetR repression strength turned out to be 0.126. Next, TCCCCCGCAGTCCCTGAGA: 0.333; TCCCAGCCAGTACATGAGA: 0.311. TCCCGCGCAGTAAGGGAGA came in with a TetR repression strength of 0.238.

Sequence TCCCCTGTAGTAGGGGAGA yielded a TetR repression strength of 0.261. For the sequence TCCCGTATAGTATGCGAGA, the TetR repression strength worked out at 0.024. Next, TCCCATACAGTGGTAGAGA: 0.419; TCCCCGAAAGTCCTAGAGA: 0.353. TCCCACGTAGTTTAAGAGA: the TetR repression strength is 0.161. As to TCCCGGCTAGTCAAGGAGA, the TetR repression strength worked out at 0.153. Next, TCCCCGGCAGTATCCGAGA: 0.147; TCCCGATGAGTTAATGAGA: 0.196; TCCCCCGTAGTTCGCGAGA: 0.181. Turning to TCCCAATAAGTTCACGAGA, the TetR repression strength is 0.357. For the sequence TCCCAAGGAGTGTGGGAGA, the TetR repression strength is 0.177. Sequence TCCCCACTAGTAAAAGAGA gave a TetR repression strength of 0.303. As to TCCCAGTAAGTTGATGAGA, the TetR repression strength was found to be 0.176.

TCCCAATCAGTGTGCGAGA showed a TetR repression strength of 0.364. The figure for TCCCATTAAGTTTTTGAGA is 0.223; for TCCCGGGAAGTGTGAGAGA it is 0.141; for TCCCCGTCAGTCTCTGAGA it is 0.235.

TCCCGGTTAGTATCGGAGA: the TetR repression strength was determined as 0.363. Next, TCCCTTGTAGTCCGCGAGA: 0.394. On to TCCCATCCAGTATGCGAGA, for which the TetR repression strength was determined as 0.11. The sequence TCCCAGACAGTCTAGGAGA showed a TetR repression strength of 0.359. Turning to TCCCGTCTAGTTCTGGAGA, the TetR repression strength was 0.687. In turn, TCCCGTGTAGTTCTTGAGA registered a TetR repression strength of 0.0838. The sequence TCCCGGCTAGTGGCCGAGA came in with a TetR repression strength of 0.166.
